Assay results reported in the supplement of paper PMC8728848.
The other results are listed elsewhere or left out.

Columns and labels:
Experiment in all cases: glycan array binding signal (z-score within array); higher = stronger binding
Conditions in all cases: glycan notation: IUPAC condensed, linker removed
[1] = biological target: Fuc(a1-2)Gal
Summary of the method: (§1)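 Glycan array binding is given as a within-array Z-score, which can be read as non-binding when negative. The arrays, 3228 of them, came from the Consortium for Functional Glycomics database and were retained only where the protein sequence was available. Z-scores were averaged across arrays of the same protein sequence at different concentrations or buffers and across linkers.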

[2] = biological target: Fuc(a1-2)Gal(b1-3)GalNAc
Summary of the method: as §1

[3] = biological target: Fuc(a1-2)Gal(b1-3)GalNAc(b1-3)Gal
Summary of the method: as §1

[4] = biological target: Fuc(a1-2)Gal(b1-3)GalNAc(b1-3)Gal(a1-4)Gal(b1-4)Glc
Summary of the method: as §1

[5] = biological target: Fuc(a1-2)Gal(b1-3)GalNAc(b1-4)[Neu5Ac(a2-3)]Gal(b1-4)Glc
Summary of the method: as §1

[6] = biological target: Fuc(a1-2)Gal(b1-3)GlcNAc
Summary of the method: as §1

[7] = biological target: Fuc(a1-2)Gal(b1-3)GlcNAc(b1-2)Man(a1-3)[Fuc(a1-2)Gal(b1-3)GlcNAc(b1-2)Man(a1-6)]Man(b1-4)GlcNAc(b1-4)GlcNAc
Summary of the method: as §1

[8] = biological target: Fuc(a1-2)Gal(b1-3)GlcNAc(b1-3)Gal(b1-4)Glc
Summary of the method: as §1

[9] = biological target: Fuc(a1-2)Gal(b1-3)GlcNAc(b1-3)[Gal(b1-4)[Fuc(a1-3)]GlcNAc(b1-6)]Gal(b1-4)Glc
Summary of the method: as §1

[10] = biological target: Fuc(a1-2)Gal(b1-3)[Fuc(a1-4)]GlcNAc
Summary of the method: as §1

[11] = biological target: Fuc(a1-2)Gal(b1-3)[Fuc(a1-4)]GlcNAc(b1-2)Man(a1-3)[Fuc(a1-2)Gal(b1-3)[Fuc(a1-4)]GlcNAc(b1-2)Man(a1-6)]Man(b1-4)GlcNAc(b1-4)GlcNAc
Summary of the method: as §1

[12] = biological target: Fuc(a1-2)Gal(b1-4)Glc
Summary of the method: as §1

[13] = biological target: Fuc(a1-2)Gal(b1-4)Glc6S
Summary of the method: as §1

[14] = biological target: Fuc(a1-2)Gal(b1-4)GlcNAc
Summary of the method: as §1

[15] = biological target: Fuc(a1-2)Gal(b1-4)GlcNAc(b1-2)Man(a1-3)[Fuc(a1-2)Gal(b1-4)GlcNAc(b1-2)Man(a1-6)]Man(b1-4)GlcNAc(b1-4)GlcNAc
Summary of the method: as §1

[16] = biological target: Fuc(a1-2)Gal(b1-4)GlcNAc(b1-3)Gal(b1-4)GlcNAc
Summary of the method: as §1

[17] = biological target: Fuc(a1-2)Gal(b1-4)GlcNAc(b1-3)Gal(b1-4)GlcNAc(b1-3)Gal(b1-4)GlcNAc
Summary of the method: as §1

[18] = biological target: Fuc(a1-2)Gal(b1-4)GlcNAc6S
Summary of the method: as §1

[19] = biological target: Fuc(a1-2)Gal(b1-4)[Fuc(a1-3)]GlcNAc
Summary of the method: as §1

[20] = biological target: Fuc(a1-2)Gal(b1-4)[Fuc(a1-3)]GlcNAc(b1-2)Man(a1-3)[Fuc(a1-2)Gal(b1-4)[Fuc(a1-3)]GlcNAc(b1-2)Man(a1-6)]Man(b1-4)GlcNAc(b1-4)GlcNAc
Summary of the method: as §1

[21] = biological target: Fuc(a1-2)Gal(b1-4)[Fuc(a1-3)]GlcNAc(b1-3)Gal(b1-4)[Fuc(a1-3)]GlcNAc
Summary of the method: as §1

[22] = biological target: Fuc(a1-2)Gal(b1-4)[Fuc(a1-3)]GlcNAc(b1-3)Gal(b1-4)[Fuc(a1-3)]GlcNAc(b1-3)Gal(b1-4)[Fuc(a1-3)]GlcNAc
Summary of the method: as §1

[23] = biological target: Fuc(a1-2)Gal6S(b1-4)Glc
Summary of the method: as §1

[24] = biological target: Fuc(a1-2)Gal6S(b1-4)Glc6S
Summary of the method: as §1

[25] = biological target: Fuc(a1-2)Gal6S(b1-4)GlcNAc
Summary of the method: as §1

[26] = biological target: Fuc(a1-2)[Gal(a1-3)]Gal
Summary of the method: as §1

[27] = biological target: Fuc(a1-2)[Gal(a1-3)]Gal(b1-3)GlcNAc
Summary of the method: as §1

[28] = biological target: Fuc(a1-2)[Gal(a1-3)]Gal(b1-3)GlcNAc(b1-2)Man(a1-3)[Fuc(a1-2)[Gal(a1-3)]Gal(b1-3)GlcNAc(b1-2)Man(a1-6)]Man(b1-4)GlcNAc(b1-4)GlcNAc
Summary of the method: as §1

[29] = biological target: Fuc(a1-2)[Gal(a1-3)]Gal(b1-4)Glc
Summary of the method: as §1

[30] = biological target: Fuc(a1-2)[Gal(a1-3)]Gal(b1-4)GlcNAc
Summary of the method: as §1

B1: Flo5 (Saccharomyces cerevisiae), P38894 (protein)
chain: MGSSHHHHHHSSGLVPRGSHMSGATEACLPAGQRKSGMNINFYQYSLKDSSTYSNAAYMAYGYASKTKLGSVGGQTDISIDYNIPCVSSSGTFPCPQEDSYGNWGCKGMGACSNSQGIAYWSTDLFGFYTTPTNVTLEMTGYFLPPQTGSYTFSFATVDDSAILSVGGSIAFECCAQEQPPITSTNFTINGIKPWDGSLPDNITGTVYMYAGYYYPLKVVYSNAVSWGTLPISVELPDGTTVSDNFEGYVYSFDDDLSQSNCTIPDPSIH
[1]
  glycan array binding signal (z-score): -0.201
[2]
  glycan array binding signal (z-score): -0.065
[3]
  glycan array binding signal (z-score): 1.59
[4]
  glycan array binding signal (z-score): -0.27
[5]
  glycan array binding signal (z-score): -0.16
[6]
  glycan array binding signal (z-score): -0.206
[7]
  glycan array binding signal (z-score): -0.07
[8]
  glycan array binding signal (z-score): 0.011
[9]
  glycan array binding signal (z-score): -0.153
[10]
  glycan array binding signal (z-score): -0.173
[11]
  glycan array binding signal (z-score): 0.231
[12]
  glycan array binding signal (z-score): 1.59
[13]
  glycan array binding signal (z-score): 0.004
[14]
  glycan array binding signal (z-score): -0.044
[15]
  glycan array binding signal (z-score): -0.157
[16]
  glycan array binding signal (z-score): -0.163
[17]
  glycan array binding signal (z-score): -0.14
[18]
  glycan array binding signal (z-score): -0.193
[19]
  glycan array binding signal (z-score): -0.131
[20]
  glycan array binding signal (z-score): -0.084
[21]
  glycan array binding signal (z-score): -0.205
[22]
  glycan array binding signal (z-score): -0.118
[23]
  glycan array binding signal (z-score): -0.179
[24]
  glycan array binding signal (z-score): -0.048
[25]
  glycan array binding signal (z-score): -0.11
[26]
  glycan array binding signal (z-score): 0.609
[27]
  glycan array binding signal (z-score): -0.162
[28]
  glycan array binding signal (z-score): 0.739
[29]
  glycan array binding signal (z-score): -0.07
[30]
  glycan array binding signal (z-score): -0.112
